# Measured values: PMC12136788
# The list shows a part of the results.
# B1: chr11:87793471:87793472:-_ENSMUSG00000020483_ENSMUST00000020775|mus_mus|mus_mus_mus_hu_False|8_38 (ssRNA)
# RNA: GGGAGUUCUACAGUCCGACGAUCUGGACUUGAAAAUAAAAGAAUAAGCUGGAUCCCCCACCCCCCCACAUUGUCAACCCUACACGAGAGUUUUGAAUGAUUCAUAAGAAAAUCAGCAGCUCAAACGAAUGACAACCCCCCACCCAACAGAGGAUUGAGCAUCA
# B2: chr4:140556289:140556290:+_ENSMUSG00000036622_ENSMUST00000037055|mus_mus|mus_mus_mus_hu_False|18_38 (ssRNA)
# RNA: GGGAGUUCUACAGUCCGACGAUCGAUGGAGCUCACCAGGCCCCCUUUUGCCGUGCAGAACCCUGUGCGGGUCACCACUGCCAGGACGUGCGGUCCCACGUAGGCUCGGGCCUGCAAAAUGAGGGUGCCGCAGAAGAGUGUGUGCAACAGAGGAUUGAGCAUCA
# B3: 3626104_3629994_3074_CDS_ENSMUSG00000005907_ENSMUST00000121291|mouse|control|control (ssRNA)
# RNA: GGGAGUUCUACAGUCCGACGAUCAAUGCAGGGCUUUGCAGCCUGUGCUCUGAUGAAAACAUCUCGAACAGCUUGCUCACUUGCGCCAAUAUAUUUGCUGAGUAACUCUGGUCCCUUAAUACUAAUAAAAUUCAUUCCACUCUCCAACAGAGGAUUGAGCAUCA
# B4: chr7:141441981:141441982:+_ENSG00000106028_ENST00000265304|hu_mus|hu_hu_hu_mus_False|18_48 (ssRNA)
# RNA: GGGAGUUCUACAGUCCGACGAUCCUCAUGUCUUACAAACUGACGAAAUACCUGUAACACAGGUCUUCGAAACAUGGCUUCUGUUUUCUUUUCUUACUAAUCUUUAGGCUUUUCCUACCUGACGAUCAGAAAAGAGAAAAAUGACAACAGAGGAUUGAGCAUCA
# B5: chr7:141445308:141445309:+_ENSG00000106028_ENST00000265304|hu_hu|hu_hu_hu_mus_False|48_58 (ssRNA)
# RNA: GGGAGUUCUACAGUCCGACGAUCUAUGAUUGUUGUUGCUUGCCGCCUCACAUUGUUUUUAUCCAUGUACUCGCCAUAGUCUAUUUUCCCUUCCAAAAAUAUACGAGCCCCCUUUUUCACAUACUGAUAUGCCACAUCUCUGAGCAACAGAGGAUUGAGCAUCA
# B6: chr15:98781125:98781126:-_ENSMUSG00000072235_ENSMUST00000097014|mus_mus|motif|central (ssRNA)
# RNA: GGGAGUUCUACAGUCCGACGAUCAACAUUCAGGGCCCCAUCAAAUCUGAGGGAAGCAGUGAUGGAAGACACAAUUUGACCGGUCAACCUGUUUAGGUUAGUGUAGGUUGGGCGCUCAAUGUCGAGGUUUCUACGACAGAUAUCCAACAGAGGAUUGAGCAUCA
# Target: T1, UNK ZnF1-3 (human, UniProt Q9C0B0 31-174)
# T1 sequence: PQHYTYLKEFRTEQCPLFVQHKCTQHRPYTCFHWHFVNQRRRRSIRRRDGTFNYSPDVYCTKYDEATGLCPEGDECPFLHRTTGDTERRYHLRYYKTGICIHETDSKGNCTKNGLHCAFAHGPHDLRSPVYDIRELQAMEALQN
# Assay: nsRBNS (natural sequence RNA bind-n-seq); RBNS binding buffer (assumed for nsRBNS): 25 mM Tris pH 7.5, 150 mM KCl, 3 mM MgCl2, 0.01% Triton X-100, 500 ug/ml BSA, 20 U/ml SUPERase-In, 4 C; UNK is unkempt and MSI1 is Musashi-1; names of the RNAs are library labels; protein concentration not given here; high values mean tight binding
row,Binder,binding signal [enrichment R]
1,B1,2.87
2,B2,1.07
3,B3,1.07
4,B4,0.733
5,B5,0.745
6,B6,1.55
